Reference: a collection of fitness landscapes (doi:10.1016/j.celrep.2020.107928)
Whole data set: some 81,000 sequences, median “one-hybrid fitness for binding NBS DNA” near -0.1, cut for the highest 2% near 0.36. The list shows a part of the results.

B1: Caulobacter ParB omega fusion; a variant is named by its letters at X, in order, B8GW30 (parent)
chain: MESVVVGEPGMSEGRRGLGRGLSALLGEVDAAPAQAPGEQLGGSREAPIEILQRNPDQPRRTFREEDLEDLSNSIREKGVLQPILVRPSPDTAGEYQIVAGERAWRAAQRAGLKTVPIMVRELDDLAVLEIGIIENVQRADLNVLEEALSYKVLMEKFERTQENIAQTIGKSXSHVANXMRLLXLPDEVQSYLVSGELTAXHARAIAAAADPVALAKQIIEGGLSVRETEALARKAPNLSAGKSKGGRPPRVKDTDTQALESDLSSVLGLDVSIDHRGSTGTLTITYATLEQLDDLCNRLTRGI

Variants of: B1
Assay: one-hybrid fitness for binding NBS DNA (the Noc-binding site; scaled: cognate 1, non-cognate 0); higher = stronger binding
Conditions: with NBS DNA site
In short: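 Values were rescaled so that cognate is 1 and non-cognate is 0. Each is a fitness, the log change in a variant's read ratio to wild type from Illumina reads of plasmids before and after selection, with three replicate libraries pooled and variants under 10 reads dropped. Selection of the Caulobacter ParB libraries, four specificity codons randomised, used E. coli USO with a HIS3 reporter, site 19 bp from the promoter, on M9-minus-histidine with 0.1 mM IPTG and 5 mM 3-AT for 48 hours at 37°C.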

Variant | one-hybrid fitness for binding NBS DNA
NPDC | ≤ 0.2
WIVG | ≤ 0.2
IHRW | ≤ 0.2
GMDW | ≤ 0.2
RQCY | ≤ 0.2
AKVL | ≤ 0.2
PANI | ≤ 0.2
ILSN | ≤ 0.2
CQQI | ≤ 0.2
RRPF | ≤ 0.2
SFHT | ≤ 0.2
STPK | ≤ 0.2
LPMG | ≤ 0.2
KYYL | ≤ 0.2
RQNQ | ≤ 0.2
RNKW | ≤ 0.2
ELEG | ≤ 0.2
YYKR | ≤ 0.2
KKTM | ≤ 0.2
KTPP | ≤ 0.2
GSIT | ≤ 0.2
QWKK | ≤ 0.2
VVGH | ≤ 0.2
QCYR | 0.606
QNLF | ≤ 0.2

Variant | one-hybrid fitness for binding NBS DNA
SIKI | ≤ 0.2
KPGW | ≤ 0.2
PSCY | ≤ 0.2
TMMN | ≤ 0.2
WSRA | ≤ 0.2
HFPD | ≤ 0.2
PNQR | ≤ 0.2
AIAA | ≤ 0.2
WLAA | ≤ 0.2
GYHK | ≤ 0.2
ACSF | ≤ 0.2
ALRK | ≤ 0.2
IKPS | ≤ 0.2
RWAY | ≤ 0.2
GFTN | ≤ 0.2
AMNM | ≤ 0.2
VYVS | ≤ 0.2
ACFS | ≤ 0.2
EIDR | ≤ 0.2
CPCG | ≤ 0.2
ARAT | ≤ 0.2
SQKW | ≤ 0.2
NMLR | ≤ 0.2
FGSC | ≤ 0.2
CINY | ≤ 0.2

Variant | one-hybrid fitness for binding NBS DNA
MGAC | ≤ 0.2
QACM | ≤ 0.2
IAWL | ≤ 0.2
PTLK | ≤ 0.2
AMRY | ≤ 0.2
QVYS | 0.202
LAPR | ≤ 0.2
YLRV | ≤ 0.2
ILSG | ≤ 0.2
EQNS | ≤ 0.2
TRGA | ≤ 0.2
IFWG | ≤ 0.2
ALQI | ≤ 0.2
DYIL | ≤ 0.2
FPLG | ≤ 0.2
EDDS | ≤ 0.2
RMFE | ≤ 0.2
WSVM | ≤ 0.2
KSDS | ≤ 0.2
KWRG | ≤ 0.2
RNNC | ≤ 0.2
KTTQ | ≤ 0.2
LLHS | ≤ 0.2
RRCE | ≤ 0.2
AYRS | ≤ 0.2

Variant | one-hybrid fitness for binding NBS DNA
LPIK | ≤ 0.2
LKLI | ≤ 0.2
KMHT | ≤ 0.2
TNRN | ≤ 0.2
NFRV | ≤ 0.2
VRWA | ≤ 0.2
SGCL | ≤ 0.2
SQHC | ≤ 0.2
ANKT | ≤ 0.2
ASWI | ≤ 0.2
MYGG | ≤ 0.2
QCLL | ≤ 0.2
PRLR | ≤ 0.2
LLPF | ≤ 0.2
QCRN | 0.482
DITG | ≤ 0.2
VVMN | ≤ 0.2
RFDF | ≤ 0.2
MELT | ≤ 0.2
PHWT | ≤ 0.2
KPMR | ≤ 0.2
HHPV | ≤ 0.2
PHFN | ≤ 0.2
QHGM | ≤ 0.2
QVAN | ≤ 0.2

Variant | one-hybrid fitness for binding NBS DNA
LKTC | ≤ 0.2
RGIY | ≤ 0.2
RFSI | ≤ 0.2
QQIV | ≤ 0.2
RNWF | ≤ 0.2
AGRG | ≤ 0.2
ERKT | 0.248
VMPF | ≤ 0.2
VYYA | ≤ 0.2
EGTE | ≤ 0.2
ARFG | ≤ 0.2
FHPT | ≤ 0.2
PLMT | ≤ 0.2
TYRH | ≤ 0.2
TKSG | ≤ 0.2
YREG | ≤ 0.2
YLLA | ≤ 0.2
AGRH | ≤ 0.2
YRCF | ≤ 0.2
SASE | ≤ 0.2
QFGF | ≤ 0.2
FDNS | ≤ 0.2
AMLC | ≤ 0.2
PLLD | ≤ 0.2
IRVR | ≤ 0.2

Variant | one-hybrid fitness for binding NBS DNA
YYIR | ≤ 0.2
NYPC | ≤ 0.2
YRTV | ≤ 0.2
GLMR | ≤ 0.2
SKLV | ≤ 0.2
HEKS | ≤ 0.2
MGTV | ≤ 0.2
FPSY | ≤ 0.2
AVGA | ≤ 0.2
PQIF | ≤ 0.2
QERG | ≤ 0.2
APWR | ≤ 0.2
YTRG | ≤ 0.2
AVDM | ≤ 0.2
HGCT | ≤ 0.2
PDPG | ≤ 0.2
FGQL | ≤ 0.2
RRQA | 0.695
FLLP | ≤ 0.2
LANG | ≤ 0.2
EHPR | ≤ 0.2
SFMG | ≤ 0.2
NNAY | ≤ 0.2
PRGE | ≤ 0.2
KPRY | ≤ 0.2

Variant | one-hybrid fitness for binding NBS DNA
CHDY | ≤ 0.2
VQRA | ≤ 0.2
REHR | ≤ 0.2
AWHC | ≤ 0.2
ATAV | ≤ 0.2
NGSF | ≤ 0.2
REAI | ≤ 0.2
DWCR | ≤ 0.2
VKRF | ≤ 0.2
IPTL | ≤ 0.2
KPTS | ≤ 0.2
TPAC | ≤ 0.2
RDLD | ≤ 0.2
DRTG | ≤ 0.2
PYSN | ≤ 0.2
SKEG | ≤ 0.2
YHHL | ≤ 0.2
WAMG | ≤ 0.2
FGRS | ≤ 0.2
KRMM | ≤ 0.2
CSLT | ≤ 0.2
EAAR | ≤ 0.2
HYIS | ≤ 0.2
PNLL | ≤ 0.2
HYKF | ≤ 0.2

Variant | one-hybrid fitness for binding NBS DNA
AVER | ≤ 0.2
SRND | ≤ 0.2
VRES | ≤ 0.2
CCTF | ≤ 0.2
PRFR | ≤ 0.2
LHSR | ≤ 0.2
MSSS | ≤ 0.2
WKLS | ≤ 0.2
RIWS | 0.397
PGHN | ≤ 0.2
LVAR | ≤ 0.2
QYHN | ≤ 0.2
QKIC | ≤ 0.2
ECMT | ≤ 0.2
NADT | ≤ 0.2
WPFF | ≤ 0.2
WYAI | ≤ 0.2
DTIR | ≤ 0.2
HPLT | ≤ 0.2
VQAV | ≤ 0.2
